Data from the supplement of paper PMC3334620.
In all, about 33,000 sequences were measured (“E-score (-0.5 to 0.5)”: median about -0.056, highest 2% from about 0.38 on). This is one part of the list.

The sequences below were run against Stb4 (UniProt P50104) (assay: PBM E-score (8-mer binding enrichment) (E-score (-0.5 to 0.5)); higher = stronger / more preferred TF binding; most listed sequences are background and not binding sites). Details: protein concentration: 200 nM; construct: GST-DNA-binding domain.
Method in brief: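 The E-score, a modified Wilcoxon-Mann-Whitney statistic, was computed by the Universal PBM Analysis Suite for every ungapped eight-base word pooled with its reverse complement. Scans behind it were normalised with masliner after bound GST-tagged yeast transcription factors were detected with fluorescent anti-GST. The proteins, at about 100-200 nM, had been applied to universal all-10-mer Agilent arrays made double-stranded by primer extension.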

| Sequence | PBM E-score |
| --- | --- |
| AATCGGCG | 0.25 |
| CCATAAGG | -0.314 |
| ACGTCGCT | -0.198 |
| CACTGCAA | -0.0264 |
| GGTTCCAC | -0.0389 |
| CGCCCGGA | 0.328 |
| GTATAGGA | -0.287 |
| AAGTTCCC | 0.191 |
| GCCCCAGC | -0.121 |
| AGGACTTG | -0.0809 |
| GCGAAGGA | -0.0873 |
| ATTCCACA | 0.0771 |
| AAAGTCTA | -0.0867 |
| GAGAACAA | 0.0423 |
| ACTGACGC | -0.366 |
| CACCTTCC | 0.0911 |
| TGCTGCCA | -0.157 |
| CCCATCAA | -0.122 |
| GGATCCTA | 0.122 |
| CTCGCGGA | 0.21 |
| CCATCCAG | -0.194 |
| GACATTGA | 0.116 |
| AAATAGCA | -0.152 |
| ATTTCCAA | 0.0026 |
| AGCTTTAT | -0.099 |

| Sequence | PBM E-score |
| --- | --- |
| CACTAGAC | -0.0182 |
| AGCTCACA | -0.192 |
| ACTGCTAA | -0.204 |
| ATAGTGCA | 0.0253 |
| ACGAGCGT | -0.23 |
| CGTCTGGA | -0.213 |
| AGCCATGC | -0.0583 |
| AACTTAGA | -0.125 |
| AGATGGGG | -0.322 |
| ACACACAA | -0.0284 |
| CGAGGACC | 0.0985 |
| AGCTGAGG | -0.186 |
| CCGGTTCG | 0.218 |
| CGAGCGCC | 0.0887 |
| ACCCCTAA | -0.135 |
| ACAAACGT | -0.162 |
| ACAAAGGT | -0.0706 |
| CCAACCGA | 0.261 |
| AGGCCCCA | -0.094 |
| GATGCAGA | -0.0525 |
| CCTGAACG | 0.0809 |
| CTAACGAG | -0.0397 |
| ATGTTGGA | 0.0927 |
| AAAAAACT | -0.0784 |
| ATGTCTAC | -0.0761 |

| Sequence | PBM E-score |
| --- | --- |
| GATACATC | -0.0611 |
| GGTTTTCA | 0.0509 |
| GCTTTCCA | -0.0364 |
| AGGGGAAC | -0.196 |
| ACTTTAGC | 0.0442 |
| AAGATGCC | 0.0428 |
| CTCCAAAG | -0.148 |
| AGGTATGG | 0.0672 |
| CATAAACC | -0.00173 |
| CCTACTCG | 0.0849 |
| TTCTAAAA | 0.0167 |
| GTTAAAAC | 0.0832 |
| GACCTAGA | -0.115 |
| CGCGTTAC | -0.0755 |
| CATAACGG | 0.0556 |
| CGTCCTAA | -0.236 |
| ATAATGCC | 0.157 |
| TACTCTGA | -0.154 |
| CATTTCCC | 0.18 |
| GCGTGCAC | -0.00405 |
| AACAACTG | -0.121 |
| GATAAGGA | 0.0892 |
| GGAAATGA | 0.153 |
| AACACTAA | -0.105 |
| CGCTAGCA | -0.185 |

| Sequence | PBM E-score |
| --- | --- |
| AATCACGT | -0.0316 |
| GCACGAAC | -0.087 |
| AGAGCACG | -0.0543 |
| GGAATCAC | 0.244 |
| CCATCTAA | -0.0679 |
| AGGCCGAG | 0.239 |
| TGGCTGAA | -0.145 |
| ATGTCGGG | 0.307 |
| CAGATCGA | -0.0966 |
| CCCCCACG | -0.148 |
| GTCATGCA | -0.0475 |
| ACATCGGA | 0.346 |
| AGCCTGTG | -0.181 |
| GACTTTAA | 0.00489 |
| CACTGCCG | 0.259 |
| ATCTCTAC | -0.146 |
| AAATTAAG | -0.00797 |
| AGTTATTA | -0.143 |
| CTATAACC | -0.0401 |
| CCATGCGG | -0.0615 |
| CTTCCTGC | -0.234 |
| CAGTGCTA | -0.0892 |
| AGGATTTC | -0.0426 |
| ACGGGTCT | 0.0222 |
| CCTGTCAG | -0.0739 |

| Sequence | PBM E-score |
| --- | --- |
| AAGTAGCA | -0.19 |
| ACTGCGCC | -0.166 |
| ATGGAACC | 0.0684 |
| ACAACTTA | -0.252 |
| AGACAGGG | -0.178 |
| ATAACAAA | 0.0168 |
| ACCTTGTG | -0.217 |
| GTCCGTTA | 0.16 |
| CGAATAGC | -0.0664 |
| AAAATACA | -0.145 |
| GAAGGGCA | 0.0424 |
| CAGTCACC | -0.0586 |
| GGCTTGGA | -0.277 |
| CCGATGCG | 0.306 |
| CGGTACGA | 0.237 |
| ACCCATTA | 0.0384 |
| AAGGGGCT | -0.152 |
| CAAGTGTG | -0.103 |
| GTGCTTGA | -0.21 |
| CCCACGCG | -0.0488 |
| CGAACACG | 0.191 |
| GCGTATCC | -0.0185 |
| GGCGGACA | -0.0148 |
| AATTGCCG | 0.338 |
| ACTCCCCG | 0.188 |

| Sequence | PBM E-score |
| --- | --- |
| GCCAGTTA | -0.0648 |
| CGACCCTA | 0.0884 |
| CTTAAATA | -0.124 |
| AGTCGTAT | -0.147 |
| GGTGACCA | -0.12 |
| CTAATTAC | -0.0371 |
| GGTAATAA | 0.221 |
| AGCAATAT | -0.227 |
| AGAGTCAA | 0.016 |
| CGAAGCCG | 0.275 |
| ACATGCTA | -0.254 |
| AGGTAGCA | -0.255 |
| CATGGGAA | -0.0115 |
| CTTGTGGA | -0.287 |
| ATGTACGG | 0.049 |
| CGCGTTTA | 0.0227 |
| AAGGAGAC | -0.151 |
| CGAAGTCG | 0.263 |
| ACCATAGG | -0.262 |
| AATAAAAA | -0.015 |
| GAGTTAGA | -0.116 |
| GATGGTAA | -0.00489 |
| AGTTGGCG | -0.00026 |
| GATTATCA | 0.0201 |
| CGACGTCG | 0.0065 |

| Sequence | PBM E-score |
| --- | --- |
| GACAGAGA | -0.129 |
| TTCTGAAA | -0.219 |
| ATACTGTA | 0.038 |
| CATTTGCC | -0.0859 |
| ACAACCGG | 0.221 |
| GACGTCTA | -0.113 |
| CGAGTACC | 0.182 |
| AGGCGCAC | -0.139 |
| AATGATAC | -0.023 |
| CACTTCAA | 0.113 |
| GGAAGGGA | 0.248 |
| ACGGCCGC | 0.162 |
| AGAAGGGA | -0.357 |
| GGAGGTTA | 0.0576 |
| AAACAACT | -0.0401 |
| AAAGAGGA | -0.0941 |
| GCCGAGCA | 0.357 |
| GTATATCA | 0.0826 |
| AAATTAGC | 0.0665 |
| CGGTCAGC | -0.00346 |
| CACCTCCC | 0.0238 |
| CTGCGTGC | -0.0566 |
